Assay results published in PubChem BioAssay (NCATS).
Values joined by “and” are separate entries in the source; they are usually repeats but may differ in a detail not shown here. Equal values may be shown once. The list shows a part of the results. Further columns of the screen follow, without active or inactive calls. The list favours compounds with an active or inconclusive main result. The note in brackets gives the kind of curve behind each potency; many fits are weak.

test: qHTS Assay for Lipid Storage Modulators (AID 1519); details: Drosophila S3 cells, BODIPY lipid droplet/cell ratio, laser cytometry; measured here: cell count channel max response; cells loaded with oleic acid
Summary of the method: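 Cells seeded at 5,000 per well were treated with compounds over a concentration series and loaded with oleic acid (400 uM, as added). Lipid droplet fluorescence (488 nm excitation, 500-530 nm channel) was read by laser-scanning cytometry and normalized to 20 uM Triacsin C.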
Tags give direction and shape of the fitted curve.

| SMILES | max response |
| --- | --- |
| FC(F)(F)c1ccccc1-c1nc(NC2CC2)c2ccccc2n1 | 34.1% |
| C[N+](C)(C)CCOC(N)=O | 32.6% and 3.57% |
| CC[C@@H](C)[C@H]1O[C@]2(CC[C@@H]1C)C[C@@H]1C[C@H](C/C=C(/C)[C@H](O[C@@H]3C[C@H](OC)[C@H](O[C@@H]4C[C@H](OC)[C@@H](O)[C@H](C)O4)[C@H](C)O3)[C@@H](C)/C=C\C=C3CO[C@@H]4[C@H](O)C(C)=C[C@@H](C(=O)O1)[C@]34O)O2 (tested in a mixture with another compound) | -45.2% |
| COc1cccc(-c2nccc(NCc3ccccc3)n2)c1 | 12.4% |
| N#CCCn1c(=O)c(-c2cccs2)nc2cnc(Nc3ccccc3)nc21 | 47.5% |
| COCCn1c(=O)c(CCc2ccccc2)nc2cnc(N3CCNCC3)nc21 | 36.6% |
| O=c1c(-c2ccc(F)cc2)nc2cncnc2n1Cc1ccc(F)cc1 | 13.8% |
| COc1ccccc1-c1nc(N2CCN(C)CC2)c2ccccc2n1 | 40.5% |
| COc1cccc(-c2ccc3ncnc(N4CCOCC4)c3c2)c1 | 13.8% |
| N#C/C(=C\c1ccc(O)c(O)c1)C(=O)OCCc1cccs1 | 34.1% |
| O=c1c(-c2cccs2)nc2cnc(N3CCNCC3)nc2n1-c1ccccc1 | 39.6% |
| CN(C)c1ccc(-c2cncnc2NCCc2cnc[nH]2)cc1 | 35.6% |
| COc1ncc2nc(CCc3ccccc3)c(=O)n(C)c2n1 | 20% |
| COc1ccc2c(=O)ccoc2c1 | 21.2% |
| CSc1nc(NC2CCCC2)c([N+](=O)[O-])c(NC2CCCC2)n1 | 105% |
| COc1ccc2[nH]cc(CCNc3ccnc(-c4cccnc4)n3)c2c1 | 12.9% |
| COc1ccc2[nH]cc(CCNc3ncncc3-c3ccccc3Cl)c2c1 | 12.6% |
| COc1ccc(-n2c(=O)c(CCc3ccccc3)nc3cncnc32)cc1 | 33.1% |
| c1cc(NC2CC2)nc(-c2ccoc2)n1 | 30.9% |
| O=c1cc(-c2cccc(O)c2)oc2c(O)c(O)ccc12 | 32.4% |

| SMILES | max response |
| --- | --- |
| c1ccc(CNc2nc(-c3ccc4c(c3)OCO4)nc3ccccc23)cc1 | 18.6% |
| CCNc1ncc2nc(-c3cc(F)cc(F)c3)c(=O)n(Cc3cccs3)c2n1 | 13.4% |
| COCCn1c(=O)c(CCc2ccccc2)nc2cnc(Oc3ccccc3)nc21 | 30.6% |
| COc1ccc(Oc2ncc3ncc(=O)n(C4CC4)c3n2)cc1 | 17.7% |
| COc1cccc(Nc2ncc3nc(-c4cccs4)c(=O)n(-c4ccccc4)c3n2)c1 | 41.2% |
| COc1ccccc1-c1cc(NCc2cccs2)ncn1 | 42.2% |
| COCCn1c(=O)c(C)nc2cncnc21 | 42.6% |
| C[C@@]12CCC(OC(=O)c3ccccc3)CC1CCc1ccccc12 (stereo not given in full) | 32.8% |
| CN1CCN(c2nc(-c3ccccc3C(F)(F)F)nc3ccccc23)CC1 | 21.9% |
| NCCCCCCNS(=O)(=O)c1ccc2c(Cl)cccc2c1 | 92.5% |
| COc1cc2c(C=O)c3c4c(cc(OC)c(OC)c4c2cc1OC)CCN3C | 95.1% |
| O=c1c(-c2cccs2)nc2cnc(N3CCNCC3)nc2n1Cc1cccs1 | -59.4% |
| CN(C)c1ccc(-c2nccc(Nc3ccc(F)cc3)n2)cc1 | -5.33% |
| COc1ccc(-n2c(=O)c(C)nc3cnc(N4CCOCC4)nc32)cc1 | 33.5% |
| COc1cccc2c1C(=O)CC(c1ccccc1)O2 (stereo not given) | 114% |
| COCCn1c(=O)c(-c2cn(C)c3ccccc23)nc2cncnc21 | 30.5% |
| FC(F)(F)c1ccccc1-c1nccc(-n2ccnc2)n1 | 30.1% |
| COc1ccc(NC(=O)N2CCC3(CC2)CCN(C(=O)c2cccn2C)CC3)cc1 | 24.8% |
| COCCNc1nc(-c2ccoc2)nc2ccccc12 | 26.4% |
| CCNc1ncc2nc(-c3cccs3)c(=O)n(CCc3ccccc3)c2n1 | 104% |

same assay, conditions: Drosophila S3 cells, BODIPY lipid droplet/cell ratio, laser cytometry; measured here: cell number channel AC50; cells loaded with oleic acid

| SMILES | AC50 |
| --- | --- |
| FC(F)(F)c1ccccc1-c1nc(NC2CC2)c2ccccc2n1 | 3.55 µM [rising, partial curve, poor fit] |
| C[N+](C)(C)CCOC(N)=O | 25.1 µM [rising, single point] and 7.94 µM [falling, full curve, poor fit] |
| CC[C@@H](C)[C@H]1O[C@]2(CC[C@@H]1C)C[C@@H]1C[C@H](C/C=C(/C)[C@H](O[C@@H]3C[C@H](OC)[C@H](O[C@@H]4C[C@H](OC)[C@@H](O)[C@H](C)O4)[C@H](C)O3)[C@@H](C)/C=C\C=C3CO[C@@H]4[C@H](O)C(C)=C[C@@H](C(=O)O1)[C@]34O)O2 (tested in a mixture with another compound) | 3.16 µM [rising, full curve, poor fit] |
| COc1cccc(-c2nccc(NCc3ccccc3)n2)c1 | 2.24 µM [rising, partial curve] |
| N#CCCn1c(=O)c(-c2cccs2)nc2cnc(Nc3ccccc3)nc21 | 1.78 µM [rising, full curve] |
| COCCn1c(=O)c(CCc2ccccc2)nc2cnc(N3CCNCC3)nc21 | 2 µM [rising, full curve] |
| O=c1c(-c2ccc(F)cc2)nc2cncnc2n1Cc1ccc(F)cc1 | 0.251 µM [rising, full curve, poor fit] |
| COc1ccccc1-c1nc(N2CCN(C)CC2)c2ccccc2n1 | 17.8 µM [rising, partial curve, poor fit] |
| COc1cccc(-c2ccc3ncnc(N4CCOCC4)c3c2)c1 | 4.47 µM [rising, partial curve, poor fit] |
| N#C/C(=C\c1ccc(O)c(O)c1)C(=O)OCCc1cccs1 | 10 µM [rising, full curve, poor fit] |
| O=c1c(-c2cccs2)nc2cnc(N3CCNCC3)nc2n1-c1ccccc1 | 20 µM [rising, partial curve, poor fit] |
| CN(C)c1ccc(-c2cncnc2NCCc2cnc[nH]2)cc1 | 0.708 µM [rising, full curve] |
| COc1ncc2nc(CCc3ccccc3)c(=O)n(C)c2n1 | 0.1 µM [rising, full curve, poor fit] |
| COc1ccc2c(=O)ccoc2c1 | 0.0355 µM [rising, full curve, poor fit] |
| CSc1nc(NC2CCCC2)c([N+](=O)[O-])c(NC2CCCC2)n1 | 11.2 µM [rising, partial curve] |
| COc1ccc2[nH]cc(CCNc3ccnc(-c4cccnc4)n3)c2c1 | 0.0501 µM [rising, full curve, poor fit] |
| COc1ccc2[nH]cc(CCNc3ncncc3-c3ccccc3Cl)c2c1 | 2.51 µM [rising, partial curve, poor fit] |
| COc1ccc(-n2c(=O)c(CCc3ccccc3)nc3cncnc32)cc1 | 3.55 µM [rising, full curve] |
| c1cc(NC2CC2)nc(-c2ccoc2)n1 | 1.26 µM [rising, full curve, poor fit] |
| O=c1cc(-c2cccc(O)c2)oc2c(O)c(O)ccc12 | 20 µM [rising, partial curve, poor fit] |

| SMILES | AC50 |
| --- | --- |
| c1ccc(CNc2nc(-c3ccc4c(c3)OCO4)nc3ccccc23)cc1 | 0.00794 µM [rising, full curve, poor fit] |
| CCNc1ncc2nc(-c3cc(F)cc(F)c3)c(=O)n(Cc3cccs3)c2n1 | 0.316 µM [rising, partial curve] |
| COCCn1c(=O)c(CCc2ccccc2)nc2cnc(Oc3ccccc3)nc21 | 2.24 µM [rising, full curve, poor fit] |
| COc1ccc(Oc2ncc3ncc(=O)n(C4CC4)c3n2)cc1 | 2.51 µM [rising, single point] |
| COc1cccc(Nc2ncc3nc(-c4cccs4)c(=O)n(-c4ccccc4)c3n2)c1 | 1.26 µM [rising, partial curve, poor fit] |
| COc1ccccc1-c1cc(NCc2cccs2)ncn1 | 3.16 µM [rising, full curve] |
| COCCn1c(=O)c(C)nc2cncnc21 | 11.2 µM [rising, partial curve, poor fit] |
| C[C@@]12CCC(OC(=O)c3ccccc3)CC1CCc1ccccc12 (stereo not given in full) | 0.0158 µM [rising, full curve, poor fit] |
| CN1CCN(c2nc(-c3ccccc3C(F)(F)F)nc3ccccc23)CC1 | 3.98 µM [rising, full curve, poor fit] |
| NCCCCCCNS(=O)(=O)c1ccc2c(Cl)cccc2c1 | 31.6 µM [rising, partial curve, poor fit] |
| COc1cc2c(C=O)c3c4c(cc(OC)c(OC)c4c2cc1OC)CCN3C | 0.891 µM [rising, full curve] |
| O=c1c(-c2cccs2)nc2cnc(N3CCNCC3)nc2n1Cc1cccs1 | 39.8 µM [falling, single point] |
| CN(C)c1ccc(-c2nccc(Nc3ccc(F)cc3)n2)cc1 | 1.41 µM [rising, full curve] |
| COc1ccc(-n2c(=O)c(C)nc3cnc(N4CCOCC4)nc32)cc1 | 2.51 µM [rising, full curve] |
| COc1cccc2c1C(=O)CC(c1ccccc1)O2 (stereo not given) | 14.1 µM [rising, partial curve, poor fit] |
| COCCn1c(=O)c(-c2cn(C)c3ccccc23)nc2cncnc21 | 0.355 µM [rising, full curve, poor fit] |
| FC(F)(F)c1ccccc1-c1nccc(-n2ccnc2)n1 | 0.447 µM [rising, full curve, poor fit] |
| COc1ccc(NC(=O)N2CCC3(CC2)CCN(C(=O)c2cccn2C)CC3)cc1 | 0.224 µM [rising, full curve, poor fit] |
| COCCNc1nc(-c2ccoc2)nc2ccccc12 | 0.794 µM [rising, full curve, poor fit] |
| CCNc1ncc2nc(-c3cccs3)c(=O)n(CCc3ccccc3)c2n1 | 20 µM [rising, partial curve] |
